Test results published in the supplement of paper PMC4967469.
Lines with a small IC50 respond at low doses; a fit beyond the top or the lowest dose is shown as a bound at that dose. AUC is the area under the same curve over the 256-fold range up to the top dose, as a fraction; it is 1 without any effect and falls as sensitivity rises. For some of these results: Where the top dose is marked as inferred, it was derived from the fitted curves, not read from the paper.

What was measured:
Assay in all cases: Viability of human cancer cell lines after 72 h of drug (GDSC screen)
Ruxolitinib = compound: N#CC[C@H](C1CCCC1)n1cc(-c2ncnc3[nH]ccc23)cn1 [Ruxolitinib]
Method: (§1)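 Human cancer cell lines in 384-well plates, medium with 10% serum, drug for 72 h over a 256-fold dose range (nine 2-fold or five 4-fold steps up to the top dose). Adherent lines were fixed and stained with the nucleic acid dye Syto60, suspension lines read with resazurin; signal relative to control wells, capped at 0 and 100%. One two-parameter sigmoid per drug and line, fitted in a mixed model over all curves with the slope shared within a line.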

BIX02189 = compound: CN(C)Cc1cccc(N=C(c2ccccc2)c2c(O)[nH]c3cc(C(=O)N(C)C)ccc23)c1 [BIX02189]; settings: top dose 20 µM; top dose inferred
Method: as §1

OSI-027 = compound: COc1cccc2cc(-c3nc([C@H]4CC[C@H](C(=O)O)CC4)n4ncnc(N)c34)[nH]c12 [OSI-027]; settings: top dose 20 µM
Method: as §1

TG101348 = compound: Cc1cnc(Nc2ccc(OCCN3CCCC3)cc2)nc1Nc1cccc(S(=O)(=O)NC(C)(C)C)c1 [TG101348]; settings: top dose 10.24 µM
Method: as §1

CCT018159 = compound: CCc1cc(-c2n[nH]c(C)c2-c2ccc3c(c2)OCCO3)c(O)cc1O [CCT018159]; settings: top dose 10 µM; top dose inferred
Method: as §1

Dimethyloxalylglycine = compound: COC(=O)CNC(=O)C(=O)OC [Dimethyloxalylglycine]; settings: top dose 4000 µM; top dose inferred
Method: as §1

UNC1215 = compound: O=C(c1ccc(C(=O)N2CCC(N3CCCC3)CC2)c(Nc2ccccc2)c1)N1CCC(N2CCCC2)CC1 [UNC1215]; settings: top dose 1 µM; top dose inferred
Method: as §1

VX-11e = compound: Cc1cnc(Nc2ccc(F)cc2Cl)nc1-c1c[nH]c(C(=O)N[C@H](CO)c2cccc(Cl)c2)c1 [VX-11e]; settings: top dose 5.12 µM; top dose inferred
Method: as §1

8-MG-BA (glioma, adherent, top dose 5.24 µM)
AUC (Ruxolitinib): 0.987
IC50 (Ruxolitinib): > 5.24 µM

22RV1 (prostate, adherent, top dose 5.24 µM)
AUC (Ruxolitinib): 0.982
IC50 (Ruxolitinib): > 5.24 µM

42-MG-BA (glioma, adherent, top dose 5.24 µM)
AUC (Ruxolitinib): 0.984
IC50 (Ruxolitinib): > 5.24 µM

201T (lung adenocarcinoma, adherent, top dose 5.24 µM)
AUC (Ruxolitinib): 0.97
IC50 (Ruxolitinib): > 5.24 µM

451Lu (melanoma, adherent, top dose 5.24 µM)
AUC (Ruxolitinib): 0.989
IC50 (Ruxolitinib): > 5.24 µM

639-V (bladder, adherent, top dose 5.24 µM)
AUC (Ruxolitinib): 0.992
IC50 (Ruxolitinib): > 5.24 µM

647-V (bladder, adherent, top dose 5.24 µM)
AUC (Ruxolitinib): 0.963
IC50 (Ruxolitinib): > 5.24 µM

697 (lymphoblastic leukaemia, suspension, top dose 5.24 µM)
AUC (Ruxolitinib): 0.982
IC50 (Ruxolitinib): > 5.24 µM

769-P (kidney, adherent, top dose 5.24 µM)
AUC (Ruxolitinib): 0.967
IC50 (Ruxolitinib): > 5.24 µM

786-0 (kidney, adherent, top dose 5.24 µM)
AUC (Ruxolitinib): 0.985
IC50 (Ruxolitinib): > 5.24 µM

5637 (bladder, adherent, top dose 5.24 µM)
AUC (Ruxolitinib): 0.989
IC50 (Ruxolitinib): > 5.24 µM

8305C (thyroid, adherent, top dose 5.24 µM)
AUC (Ruxolitinib): 0.982
IC50 (Ruxolitinib): > 5.24 µM

8505C (thyroid, adherent, top dose 5.24 µM)
AUC (Ruxolitinib): 0.966
IC50 (Ruxolitinib): > 5.24 µM

23132-87 (stomach, adherent, top dose 5.24 µM)
AUC (Ruxolitinib): 0.986
IC50 (Ruxolitinib): > 5.24 µM

A3-KAW (B-cell lymphoma, suspension, top dose 5.24 µM)
AUC (Ruxolitinib): 0.192
IC50 (Ruxolitinib): 0.0518 µM

A4-Fuk (B-cell lymphoma, suspension, top dose 5.24 µM)
AUC (Ruxolitinib): 0.984
IC50 (Ruxolitinib): > 5.24 µM

A172 (glioma, adherent, top dose 5.24 µM)
AUC (Ruxolitinib): 0.984
IC50 (Ruxolitinib): > 5.24 µM

A253 (head and neck, adherent, top dose 5.24 µM)
AUC (Ruxolitinib): 0.988
IC50 (Ruxolitinib): > 5.24 µM

A388 (skin, adherent, top dose 5.24 µM)
AUC (Ruxolitinib): 0.983
IC50 (Ruxolitinib): > 5.24 µM

A427 (non-small cell lung carcinoma, adherent, top dose 5.24 µM)
AUC (Ruxolitinib): 0.98
IC50 (Ruxolitinib): > 5.24 µM

A498 (kidney, adherent, top dose 5.24 µM)
AUC (Ruxolitinib): 0.971
IC50 (Ruxolitinib): > 5.24 µM

A704 (kidney, adherent, top dose 5.24 µM)
AUC (Ruxolitinib): 0.989
IC50 (Ruxolitinib): > 5.24 µM

ABC-1 (lung adenocarcinoma, adherent, top dose 5.24 µM)
AUC (Ruxolitinib): 0.982
IC50 (Ruxolitinib): > 5.24 µM

ACHN (kidney, adherent, top dose 5.24 µM)
AUC (Ruxolitinib): 0.977
IC50 (Ruxolitinib): > 5.24 µM

AGS (stomach, adherent, top dose 5.24 µM)
AUC (Ruxolitinib): 0.989
IC50 (Ruxolitinib): > 5.24 µM

ALL-PO (lymphoblastic leukaemia, suspension, top dose 5.24 µM)
AUC (Ruxolitinib): 0.955
IC50 (Ruxolitinib): > 5.24 µM

ALL-SIL (T-cell leukaemia, suspension, top dose 5.24 µM)
AUC (Ruxolitinib): 0.964
IC50 (Ruxolitinib): > 5.24 µM

AM-38 (glioma, semi-adherent, top dose 5.24 µM)
AUC (Ruxolitinib): 0.98
IC50 (Ruxolitinib): > 5.24 µM

AMO-1 (haematopoietic neoplasm, suspension, top dose 5.24 µM)
AUC (Ruxolitinib): 0.977
IC50 (Ruxolitinib): > 5.24 µM

AN3-CA (endometrium, adherent, top dose 5.24 µM)
AUC (Ruxolitinib): 0.984
IC50 (Ruxolitinib): > 5.24 µM

ARH-77 (myeloma, suspension, top dose 5.24 µM)
AUC (Ruxolitinib): 0.965
IC50 (Ruxolitinib): > 5.24 µM

ASH-3 (thyroid, adherent, top dose 5.24 µM)
AUC (Ruxolitinib): 0.988
IC50 (Ruxolitinib): > 5.24 µM

AU565 (breast, adherent, top dose 5.24 µM)
AUC (Ruxolitinib): 0.982
IC50 (Ruxolitinib): > 5.24 µM

BB30-HNC (head and neck, adherent, top dose 5.24 µM)
AUC (Ruxolitinib): 0.986
IC50 (Ruxolitinib): > 5.24 µM

BB49-HNC (head and neck, adherent, top dose 5.24 µM)
AUC (Ruxolitinib): 0.973
IC50 (Ruxolitinib): > 5.24 µM

BB65-RCC (kidney, adherent, top dose 5.24 µM)
AUC (Ruxolitinib): 0.982
IC50 (Ruxolitinib): > 5.24 µM

BC-1 (B-cell lymphoma, suspension, top dose 5.24 µM)
AUC (Ruxolitinib): 0.933
IC50 (Ruxolitinib): > 5.24 µM

BC-3 (B-cell lymphoma, suspension, top dose 5.24 µM)
AUC (Ruxolitinib): 0.875
IC50 (Ruxolitinib): 4.19 µM

BCPAP (thyroid, adherent, top dose 5.24 µM)
AUC (Ruxolitinib): 0.985
IC50 (Ruxolitinib): > 5.24 µM

BEN (non-small cell lung carcinoma, adherent)
AUC (BIX02189): 0.961
IC50 (BIX02189): > 20 µM
AUC (OSI-027): 0.327
IC50 (OSI-027): 0.381 µM
AUC (TG101348): 0.881
IC50 (TG101348): > 10.2 µM
AUC (CCT018159): 0.972
IC50 (CCT018159): > 10 µM
AUC (Dimethyloxalylglycine): 0.212
IC50 (Dimethyloxalylglycine): 30.6 µM
AUC (UNC1215): 0.984
IC50 (UNC1215): > 1 µM
AUC (VX-11e): 0.977
IC50 (VX-11e): > 5.12 µM

BFTC-909 (kidney, adherent)
AUC (BIX02189): 0.985
IC50 (BIX02189): > 20 µM
AUC (OSI-027): 0.959
IC50 (OSI-027): > 20 µM
AUC (TG101348): 0.967
IC50 (TG101348): > 10.2 µM
AUC (CCT018159): 0.835
IC50 (CCT018159): 6.36 µM
AUC (Dimethyloxalylglycine): 0.511
IC50 (Dimethyloxalylglycine): 268 µM
AUC (UNC1215): 0.982
IC50 (UNC1215): > 1 µM
AUC (VX-11e): 0.978
IC50 (VX-11e): > 5.12 µM

CAL-148 (breast, suspension)
AUC (BIX02189): 0.975
IC50 (BIX02189): > 20 µM
AUC (OSI-027): 0.448
IC50 (OSI-027): 0.91 µM
AUC (TG101348): 0.923
IC50 (TG101348): > 10.2 µM
AUC (Dimethyloxalylglycine): 0.846
IC50 (Dimethyloxalylglycine): 2580 µM
AUC (VX-11e): 0.988
IC50 (VX-11e): > 5.12 µM

CAMA-1 (breast, adherent)
AUC (BIX02189): 0.963
IC50 (BIX02189): > 20 µM
AUC (OSI-027): 0.668
IC50 (OSI-027): 4.15 µM
AUC (TG101348): 0.953
IC50 (TG101348): > 10.2 µM
AUC (CCT018159): 0.957
IC50 (CCT018159): > 10 µM
AUC (Dimethyloxalylglycine): 0.804
IC50 (Dimethyloxalylglycine): 2620 µM
AUC (UNC1215): 0.982
IC50 (UNC1215): > 1 µM
AUC (VX-11e): 0.969
IC50 (VX-11e): > 5.12 µM

COR-L32 (small cell lung carcinoma, suspension)
AUC (UNC1215): 0.954
IC50 (UNC1215): > 1 µM

COR-L303 (small cell lung carcinoma, suspension)
AUC (BIX02189): 0.979
IC50 (BIX02189): > 20 µM
AUC (OSI-027): 0.293
IC50 (OSI-027): 0.334 µM
AUC (TG101348): 0.885
IC50 (TG101348): > 10.2 µM
AUC (VX-11e): 0.979
IC50 (VX-11e): > 5.12 µM

COR-L311 (small cell lung carcinoma, suspension)
AUC (BIX02189): 0.954
IC50 (BIX02189): > 20 µM
AUC (OSI-027): 0.231
IC50 (OSI-027): 0.194 µM
AUC (TG101348): 0.768
IC50 (TG101348): 4.11 µM
AUC (VX-11e): 0.935
IC50 (VX-11e): > 5.12 µM
